From PubChem BioAssay AID624417 (National Center for Advancing Translational Sciences (NCATS), 2012)
About 6,400 (1.6%) of roughly 410,000 compounds were called active. Inconclusive means that the source gave no clear call. Such entries were picked first, then a sample of the others. Calls come from the whole dose curve; as a rule, active = well fitted inhibition curve with a large enough effect; inconclusive = small, poorly fitted or top-dose-only effect; inactive = no such curve, though single readings can be large or run the other way. No potency is given beside an inconclusive call; the fits are too rough.

molecular target: Glucagon-like peptide 1 receptor (Homo sapiens) (UniProt P43220); experiment: qHTS of GLP-1 Receptor Inverse Agonists (Inhibition Mode); conditions: HEK293 GLP-1R CRE-luciferase, luminescence, 24 h, GLP-1R form is constitutively active; activity change, negative = inhibition: at 38.3 µM (top of the series) unless noted; note: nearly all actives have a fitted effect of over 55% in size
Summary of the method: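 Constitutively active GLP-1R drives a cAMP-responsive luciferase in stably transfected HEK293 cells; test compounds are added after overnight (12 h) attachment and left 24 hr, and signal loss in luminescence marks inhibition.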
% is set by controls: 0 for no effect and ±100 for the full control effect; potency is the fitted concentration of half-maximal effect; tags give direction and shape of the fitted curve.

UniProt P43220, sequence (P43220 whole entry, looked up): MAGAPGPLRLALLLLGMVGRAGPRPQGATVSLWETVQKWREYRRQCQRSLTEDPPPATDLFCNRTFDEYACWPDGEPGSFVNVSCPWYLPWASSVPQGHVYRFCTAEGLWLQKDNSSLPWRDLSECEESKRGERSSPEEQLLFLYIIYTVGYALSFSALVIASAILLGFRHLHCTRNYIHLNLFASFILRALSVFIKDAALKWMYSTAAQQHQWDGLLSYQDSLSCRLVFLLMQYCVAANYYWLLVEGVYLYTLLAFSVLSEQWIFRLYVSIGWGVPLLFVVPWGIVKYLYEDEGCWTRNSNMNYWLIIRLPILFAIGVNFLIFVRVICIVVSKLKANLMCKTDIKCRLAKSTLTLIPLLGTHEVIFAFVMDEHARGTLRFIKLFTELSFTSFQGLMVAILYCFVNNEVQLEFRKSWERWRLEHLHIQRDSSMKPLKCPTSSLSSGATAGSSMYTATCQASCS

SMILES | Potency | activity change, negative = inhibition
Cc1cccc(-c2ccc3[nH]c4c(c3c2)CCN2C[C@H]3[C@H](C)ON(C)[C@H]3C[C@@H]42)c1 | inconclusive [inhibitor, single point] | –
COC(=O)CCc1c(C)[nH]c(C(=O)OCc2ccccc2)c1C | inconclusive [inhibitor, single point] | –
Cc1c(Cl)cccc1NC(=O)CSc1ncccc1C(=O)Oc1ccccc1Cl | – | inactive: 6.04%
COc1ccc(C(C#N)=C2C=C(Cl)C(=NO)C=C2Cl)cc1 | inconclusive [inhibitor, single point] | –
Cc1ccc(S(=O)(=O)Nc2ccc(-c3nnc(SCc4ccccc4Cl)o3)cc2)cc1 | inconclusive [inhibitor, single point] | –
CCOC(=O)c1c(-c2ccc(F)cc2)csc1NC(=O)C1CCCO1 (stereo not drawn) | inconclusive [inhibitor, single point] | –
CSc1nnc(NC(=O)c2nc(S(=O)(=O)Cc3ccccc3)ncc2Cl)s1 | inconclusive [inhibitor, single point] | –
COc1ccc(C2NC(=O)NC(C)=C2C(=O)OC2CCC(C)CC2)cc1 (stereo not drawn) | inconclusive [inhibitor, single point] | –
Cc1cccc(NC(=S)NN2CCOCC2)c1C | – | inactive: 3.42%
CCCNC(=O)c1ccc(N2CCC3(CC2)CC(c2cccc(Br)c2)=NO3)c(N)c1 | inconclusive [inhibitor, single point] | –
CSC1=C(C#N)C(c2ccc(Cl)cc2)C2=C(CC(C)(C)CC2=O)N1 (stereo not drawn) | inconclusive [inhibitor, partial curve, poor fit] | –
CN1CCN(c2nc3c(S(=O)(=O)c4ccc(Br)cc4)nnn3c3ccsc23)CC1 | – | inactive: 10.8%
CCCCc1nc(N2CCN(C(=O)c3ccco3)CC2)c(C#N)c2c1CCCC2 | inconclusive [inhibitor, partial curve, poor fit] | –
CC(=O)Nc1sc2c(c1C(c1ccc(Cl)cc1)N1CCOCC1)CCCC2 (stereo not drawn) | inconclusive [inhibitor, partial curve, poor fit] | –
CCc1sc(Nc2cccc(Cl)c2C)nc1-c1cc2cccc(OC)c2oc1=O | – | inactive: 0.412%
Cc1ccccc1C(=O)Nc1ccc2c(c1)OCO2 | inconclusive [inhibitor, single point] | –
CCCOc1ccc(-c2nonc2NC(=O)c2oc3ccc(C)cc3c2C)cc1OCCC | – | inactive: 10.9%
CCN(CC)C(=O)C(Cc1ccccc1)N1C(=O)c2ccccc2C1=O (stereo not drawn) | inconclusive [inhibitor, partial curve, poor fit] | –
O=C(Cn1cc(SCc2ccc(C(F)(F)F)cc2)c2ccccc21)N1CCCC1 | inconclusive [inhibitor, partial curve, poor fit] | –
C/C(=N\N=C(N)N)c1ccc(Cl)cc1 | inconclusive [inhibitor, single point] | –
O=C(CSc1nc(Nc2ccccc2)nc(N2CCOCC2)n1)N1CCCC1 | inconclusive [inhibitor, single point] | –

SMILES | Potency | activity change, negative = inhibition
Cc1oc(-c2cc(F)ccc2F)nc1CN1CCN(c2ncnc3ccccc23)CC1 | inconclusive [inhibitor, partial curve] | –
CN(C(=O)c1ccc(NC(=O)Cc2ccc(NC(=O)C3CCCN(C(=O)CCc4ccccc4)C3)cc2)cc1)C1CC1 (stereo not drawn) | – | inactive: 17.1%
CC1CCN(C(=O)COC(=O)c2cccc(S(=O)(=O)N(C)c3ccccc3)c2)CC1 | inconclusive [inhibitor, single point] | –
CN(C)CCNC(=O)c1cccc(-c2cnc3c(NC=O)cc(-c4ccccc4F)cn23)c1 | inconclusive [inhibitor, single point] | –
O=C(COC(=O)C12CC3CC(CC(O)(C3)C1)C2)Nc1ccc(Cl)cc1F | inconclusive [inhibitor, single point] | –
COc1ccc([C@H]2[C@H](C(=O)C(C)(C)C)N3N=Cc4ccccc4C3[C@]23N=C(c2ccccc2)OC3=O)cc1 (stereo partly drawn) | – | inactive: 0%
CCOC(=O)N1CCN(C(=O)CN(C2CCCCC2)S(=O)(=O)c2ccc(C)cc2)CC1 | inconclusive [inhibitor, full curve, poor fit] | –
C(=N\N1CCN(c2ccccn2)CC1)/c1ccco1 | – | inactive: -0.858%
COc1cccc(Cn2cccc(NC(=O)Nc3ccc(C#N)cc3)c2=O)c1 | inconclusive [inhibitor, single point] | –
COc1ccccc1C1CC(c2ccc(Br)cc2)=NN1C(=O)c1cccnc1 (stereo not drawn) | inconclusive [inhibitor, partial curve, poor fit] | –
CC1=CC(C)(C)NC(=S)N1c1cccc(Cl)c1 | inconclusive [inhibitor, single point] | –
CC(C)(C)OC(=O)C[C@H]1C/C=C\C[C@@H](CC(=O)N[C@@H](CO)Cc2ccccc2)C(=O)NC[C@H](c2ccccc2)OC1=O | – | inactive: 11.2%
COC(=O)C1C(=O)C=C(N2CCOCC2)CC1(C)C (stereo not drawn) | – | inactive: 4.24%
C=CCN(CC=C)CCOc1ccc2ccccc2c1 | inconclusive [inhibitor, partial curve, poor fit] | –
S=C(NCc1ccccc1)C(=S)NCc1ccccc1 | active: 10 µM | –
CC(=O)N1Cc2cc(C(=O)NCC(F)(F)F)nc(-c3cccc(-c4cccnc4)c3)c2[C@H]1CCO | – | inactive: -8.7%
CC(=O)c1ccc(NC(=O)CSc2cn(CC(=O)N3CCCCCC3)c3ccccc23)cc1 | inconclusive [inhibitor, single point] | –
CCCCCCCCN1C(=O)[C@H](CC(=O)NCCc2ccccc2OC)C[C@@]2(C(=O)OC)CC(C)(C)CC=C12 | inconclusive [inhibitor, partial curve, poor fit] | –
O=C(CSc1nnc2scc(-c3ccccc3)n12)NCc1ccc2c(c1)OCO2 | inconclusive [inhibitor, partial curve, poor fit] | –
CCOc1cccc(C(=O)Nc2ccc(N3CCN(S(C)(=O)=O)CC3)cc2)c1 | – | inactive: -0.291%
CCc1ccccc1Nc1nc(N)nc(CSCC(=O)Nc2ccc(C)c(C)c2)n1 | inconclusive [inhibitor, single point] | –

SMILES | Potency | activity change, negative = inhibition
Cc1ccc(CN2CCCN(Cc3cc(C)ccc3C)S2(=O)=O)cc1 | inconclusive [inhibitor, single point] | –
CCOc1ccccc1N1CC(C(=O)Nc2cccc(S(=O)(=O)N3CCCCC3)c2)CC1=O (stereo not drawn) | – | inactive: -13.9% [at 7.66 µM]
COc1cc(S(=O)(=O)N2CCN(Cc3ccccc3)CC2)ccc1Br | inconclusive [inhibitor, single point] | –
CCCNC(=O)c1cccc(S(=O)(=O)N2CC3(C)CC2CC(C)(C)C3)c1 (stereo not drawn) | inconclusive [inhibitor, partial curve, poor fit] | –
CC(C)(C)[C@H]1COC(=O)[C@@H](Cc2ccc(F)cc2)C/C=C\C[C@@H](CC(=O)N[C@H](CO)Cc2ccccc2)C(=O)N1 | inconclusive [inhibitor, partial curve, poor fit] | –
COc1ccc(CNCc2cccc(OC)c2OC)cc1Br | inconclusive [inhibitor, single point] | –
CC1CCN(S(=O)(=O)c2ccc(C(=O)Nc3sc4c(c3C(N)=O)CC(C)(C)NC4(C)C)cc2)CC1 | inconclusive [inhibitor, single point] | –
Cc1ccccc1Cn1cnc2ccccc21 | inconclusive [inhibitor, partial curve, poor fit] | –
COc1ccccc1NC(=O)N1CCc2[nH]c3ccc(Cl)cc3c2C1 | inconclusive [inhibitor, partial curve, poor fit] | –
CCC(C)N(C(=O)c1csnn1)C(C(=O)NCc1ccc(F)cc1)c1ccccc1F (stereo not drawn) | inconclusive [inhibitor, partial curve, poor fit] | –
CC(C)(C)CC(C)(C)NCC(O)COCCOc1ccc(Br)cc1 (stereo not drawn) | inconclusive [inhibitor, full curve, poor fit] | –
COCOCCn1cc(CN2CCS(=O)(=O)N(Cc3ccc(-c4ccc(Cl)c(Cl)c4)cc3)C(C(C)C)C2=O)nn1 (stereo not drawn) | inconclusive [inhibitor, single point] | –
OCCn1c(-c2ccccc2)csc1=Nc1ccccc1 | inconclusive [inhibitor, partial curve, poor fit] | –
CCOC(=O)N/N=C\c1ccc(-c2cc(Cl)ccc2Cl)o1 | inconclusive [inhibitor, single point] | –
COc1ccccc1N1CCN(C(=O)CSc2nc3ccccc3nc2N2CCC(C)CC2)CC1 | active: 5.01 µM | –
COc1ccc(OC)c(C(=O)NC2CCCc3c2cnn3-c2cc(C)cc(C)c2)c1 (stereo not drawn) | active: 10 µM | –
CC(NC(=O)c1ccccc1F)c1ccccc1 (stereo not drawn) | inconclusive [inhibitor, full curve, poor fit] | –
CCCCC(CC)CNC(=O)C1CCC(CNS(=O)(=O)c2cccc3nsnc23)CC1 (stereo not drawn) | inconclusive [inhibitor, single point] | –
CC(C)CC(=O)NC(=S)Nc1ccccc1C(F)(F)F | inconclusive [inhibitor, single point] | –
CCC(CC)NC(=O)c1cccc(Oc2ccccc2)c1 | inconclusive [inhibitor, single point] | –
O=C(NCc1ccccc1)c1ccc2c(c1)CCN2S(=O)(=O)c1ccccc1 | inconclusive [inhibitor, single point] | –
